Data published in PubChem BioAssay (Tox21).
Several values for one entry are separate records, joined by “and”; a condition that tells them apart may be missing. Equal values may be shown once. The shares of active, inactive and inconclusive entries below differ from those in the screen. For some assays here: Where the call is inconclusive, the potency comes from a doubtful curve fit. Some compounds were tested as several samples or in several runs, with calls that do not always agree. Activity calls are given as the source filed them. Unless noted, calls come from the whole dose curve; as a rule, active = well fitted curve in the direction sought with a large enough effect in the repeat runs; inconclusive = weak or mixed curves; inactive = no such curve, though single readings can be large; an effect the other way counts as inactive or inconclusive.

Experiment: qHTS assay to identify small molecule antagonists of the TGF-beta/Smad signaling pathway (AID 1346924; active = well fitted inhibition curve with a large enough effect in the signal ratio in the repeat runs, not every such curve was filed as active; inconclusive = weak or mixed curves; the % refers to the signal ratio)
Settings: SBE-bla HEK293T, TGF-beta/Smad reporter, beta-lactamase ratio; activity, negative = inhibition: at 76.8 µM (top of the series) unless noted
Outline: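 SBE-bla HEK 293T cells were plated overnight, then received compound in DMSO plus TGF-beta1 (added as a 0.25 ng/mL solution) and were incubated 5 h at 37 C. Beta-lactamase reporter activity was read after 2 h at room temperature with LiveBLAzer B/G FRET substrate (ex 405, em 460/530 nm).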
Tags give direction and shape of the fitted curve.

Row | Compound | activity, negative = inhibition
1 | C=CCc1ccc(OC)cc1 | inconclusive: 17.6%
2 | COC(C)(C)CCCC(C)C/C=C/C(C)=C/C(=O)OC(C)C (stereo not drawn) | inconclusive: -7.17%
3 | Nc1ccc(N=Nc2ccc(-c3ccc(N=Nc4c(S(=O)(=O)O)cc5cc(S(=O)(=O)O)c(N=Nc6ccccc6)c(O)c5c4N)cc3)cc2)c(N)c1 | inconclusive: -8.43% [at 35.3 µM]
4 | c1ccc2c(c1)OCC(C1=NCCN1)O2 (stereo not drawn) | inconclusive: 9.45% [at 35.3 µM]
5 | OCCCBr | inconclusive: -0.994%
6 | Cc1cc(Cl)ccc1OCC(=O)O | inconclusive: 4.48%
7 | N#CN | inconclusive: -20% [at 200 µM]

Experiment: Caspase-3/7 induction in CHO-K1 cells by small molecules, qHTS cell viability counter screen (AID 1346979); note: nearly all actives have a fitted effect of over 35% in size; note: potency is the fitted concentration of half-maximal effect
Settings: CellTiter-Fluor fluorescence, 17 h; series mostly up to 92.4 µM
Outline: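 Seeding: 1,500 CHO-K1 cells/well. Rest: 5hr, 37C. Treatment: compounds in DMSO, 16hr. Read: CellTiter-Fluor, 1hr, fluorescence.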

Row | Compound | Potency
8 | COC(=O)C(C)Oc1ccc(Oc2ccc(Cl)cc2Cl)cc1 (stereo not drawn) | inactive
9 | CC1=C(C(=O)Nc2ccccc2)SCCO1 | inconclusive: 62.1 µM [cytotoxic, partial curve] and inconclusive: 27.3 µM [cytotoxic, partial curve]
10 | c1cc2ccc3cccc4ccc(c1)c2c34 | inconclusive: 71.9 µM
11 | CN=C=S | inconclusive: 69.2 µM [cytotoxic, single point]
12 | CC(C)Nc1ccc(Nc2ccccc2)cc1 | active: 24.2 µM and active: 38.6 µM
13 | COP(=S)(OC)Oc1nc(Cl)c(Cl)cc1Cl | inconclusive: 54.4 µM [cytotoxic, partial curve, poor fit]
14 | CC(C)(C)C(O)C(Oc1ccc(-c2ccccc2)cc1)n1cncn1 (stereo not drawn) | active: 61.1 µM
15 | CC(Oc1ccc(Cl)cc1Cl)C(=O)O (stereo not drawn) | inactive
16 | Nc1ccccc1C(=O)OC/C=C/c1ccccc1 | inconclusive: 68.7 µM [cytotoxic]
17 | O=C(CCl)c1ccccc1 | inconclusive: 78.1 µM [cytotoxic, single point]
18 | CNC(=O)O/N=C(\SC)C(=O)N(C)C | inactive
19 | C[C@H]1CCC[C@H](O)CCCCCc2cc(O)cc(O)c2C(=O)O1 | active: 61.6 µM
20 | CC#C[C@]1(O)CC[C@H]2[C@@H]3C[C@H](C)C4=CC(=O)CC[C@]4(C)[C@H]3CC[C@@]21C | inconclusive: 15 µM [cytotoxic, partial curve]
21 | Oc1c(Br)cc(Br)cc1Br | inconclusive: 77.1 µM [cytotoxic, partial curve, poor fit]
22 | COc1ccc2c3c1O[C@H]1[C@@H](O)C=C[C@H]4[C@@H](C2)N(C)CC[C@@]341 | active: 60.1 µM
23 | CSC(=O)c1c(C(F)F)nc(C(F)(F)F)c(C(=O)SC)c1CC(C)C | inconclusive: 68.2 µM [cytotoxic]
24 | C#C[C@]1(O)C=C[C@H]2[C@@H]3CCC4=CC(=O)CC[C@@H]4[C@H]3CC[C@@]21CC | inconclusive: 33.5 µM [cytotoxic, single point]
25 | COC(=O)N(C(=O)N1CO[C@@]2(C(=O)OC)Cc3cc(Cl)ccc3C2=N1)c1ccc(OC(F)(F)F)cc1 | inconclusive: 11.8 µM [cytotoxic, full curve]
26 | Nc1ccc(Cl)cc1C(=O)c1ccccc1F | inconclusive: 29.8 µM [cytotoxic, single point]
27 | CC(=O)C(Cl)C(=O)N(C)C (stereo not drawn) | inconclusive: 68.6 µM [cytotoxic, single point]
28 | CCN(CC)C(=O)SCc1ccc(Cl)cc1 | inactive
29 | C=CCc1ccc(OC)cc1 | inconclusive: 74.6 µM [rising, partial curve, poor fit]
30 | COC(C)(C)CCCC(C)C/C=C/C(C)=C/C(=O)OC(C)C (stereo not drawn) | inactive
31 | Nc1ccc(N=Nc2ccc(-c3ccc(N=Nc4c(S(=O)(=O)O)cc5cc(S(=O)(=O)O)c(N=Nc6ccccc6)c(O)c5c4N)cc3)cc2)c(N)c1 | active: 17.6 µM
32 | Cc1cc(Cl)ccc1OCC(=O)O | inconclusive: 61.1 µM [rising, partial curve, poor fit]

Experiment: Caspase-3/7 induction in HepG2 cells by small molecules, qHTS cell viability counter screen (AID 1346981); note: nearly all actives have a fitted effect of over 30% in size; note: potency is the fitted concentration of half-maximal effect
Settings: CellTiter-Fluor fluorescence, 17 h; series mostly up to 92.4 µM
Outline: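 Multiplexed with the caspase-3/7 assay: HepG2 cells, 16 hr compound treatment, CellTiter-Fluor viability detection by fluorescence.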

Row | Compound | Potency
33 | ClCc1ccccc1 | inconclusive: 68.2 µM [rising, partial curve, poor fit]
34 | c1cc2ccc3cccc4ccc(c1)c2c34 | inconclusive: 102 µM [rising, partial curve, poor fit]
35 | CN(C)C1CSSSC1 | inactive
36 | CCOc1cc(Oc2ccc(C(F)(F)F)cc2Cl)ccc1[N+](=O)[O-] | inconclusive: 69.4 µM [cytotoxic, partial curve, poor fit] and inactive
37 | CC(C)(C)C(O)C(Oc1ccc(-c2ccccc2)cc1)n1cncn1 (stereo not drawn) | inconclusive: 68.6 µM [cytotoxic, single point]
38 | CC(C)OC(=S)S | inconclusive: 43.3 µM [rising, partial curve]
39 | Nc1ccccc1C(=O)OC/C=C/c1ccccc1 | inactive
40 | CCCN(CCC)c1c([N+](=O)[O-])cc(C(C)C)cc1[N+](=O)[O-] | inconclusive: 2.38 µM [cytotoxic, single point]
41 | CN(C)C(=S)[S-].CN(C)C(=S)[S-].[Cu+2] | active: 7.45 µM
42 | OC(c1ccc(Cl)cc1)(c1cncnc1)c1ccccc1Cl (stereo not drawn) | inconclusive: 69.8 µM [cytotoxic, single point] and inconclusive: 61.1 µM [cytotoxic, partial curve, poor fit]
43 | [Cl][Sb]([Cl])[Cl] | inconclusive: 6.86 µM [rising, partial curve, poor fit]
44 | CCOc1nc(F)cc2nc(S(=O)(=O)Nc3c(Cl)cccc3Cl)nn12 | inconclusive: 54.5 µM [cytotoxic, partial curve]
45 | O=S(=O)(c1ccc(Cl)cc1)c1ccc(Cl)cc1 | inconclusive: 27.6 µM [cytotoxic, single point]
46 | COc1ccc2c3c1O[C@H]1[C@@H](O)C=C[C@H]4[C@@H](C2)N(C)CC[C@@]341 | inconclusive: 67.5 µM [cytotoxic, single point] and inactive
47 | Nc1ccc(Cl)cc1C(=O)c1ccccc1F | inconclusive: 33.5 µM [cytotoxic, single point]
48 | Cc1ccccc1N | inconclusive: 0.611 µM [cytotoxic, single point]
49 | Nc1ccc(N=Nc2ccc(-c3ccc(N=Nc4c(S(=O)(=O)O)cc5cc(S(=O)(=O)O)c(N=Nc6ccccc6)c(O)c5c4N)cc3)cc2)c(N)c1 | active: 19.7 µM
50 | c1ccc2c(c1)OCC(C1=NCCN1)O2 (stereo not drawn) | inconclusive: 29.8 µM [cytotoxic, partial curve]
51 | OCCCBr | inconclusive: 24.3 µM [rising, partial curve]
52 | Cc1cc(Cl)ccc1OCC(=O)O | inconclusive: 38.3 µM [rising, partial curve, poor fit]
53 | N#CN | inactive
